The labels stand for the following.
T1: UNK ZnF1-3 (human, UniProt Q9C0B0 31-174)
T1 sequence: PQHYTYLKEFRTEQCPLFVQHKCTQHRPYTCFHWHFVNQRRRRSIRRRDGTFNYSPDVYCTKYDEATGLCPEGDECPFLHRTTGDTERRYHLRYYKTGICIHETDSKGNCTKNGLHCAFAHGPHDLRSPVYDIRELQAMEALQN

B1: 33698877_33698997_61_5pUTR_ENSMUSG00000027677_ENSMUST00000099153|mouse|control|control (ssRNA)
RNA: GGGAGUUCUACAGUCCGACGAUCGACGCCUGAGCUUAGCACGUACGUCGGGCUGUGUGGUUCCUAGGUCGCCAAGGCCAGAGCUCCGGUCUCUUUUUCACCGGGUGCUGCCGAGUUCAGCGGUGCAAGGGUGGCUGGGCGGCCCAACAGAGGAUUGAGCAUCA
B2: chr7:36506639:36506640:-_ENSMUSG00000043671_ENSMUST00000051377|mus_hu|FALSE|FALSE (ssRNA)
RNA: GGGAGUUCUACAGUCCGACGAUCGAACAGCACUAAUGCUUGCAUCAGCAUCAUAAAUUGAUUAAAUUGCCAUGUCAGACUAAAGAGAAAAGUUGAUAUGAAAAUGGCAAGAAGUGUCAGCCUUUCAGAAAGAGGCUGUAAGUUCAACAGAGGAUUGAGCAUCA
B3: chr7:134094464:134094465:+_ENSMUSG00000030683_ENSMUST00000106335|mus_hu|FALSE|FALSE (ssRNA)
RNA: GGGAGUUCUACAGUCCGACGAUCCUCCGUCUCCGUUUAUCUUUCCCUUUAAUUGUUUUUUUUUUUUUUUUUUUUUUCCUCGUAGGAGUCAGCAAAGAAAGACAAUUUCUCUGCCCCUUGGGAUGGAGGGGCAGAAUUGGGCUACAACAGAGGAUUGAGCAUCA
B4: 11454962_11455736_3700_CDS_ENSMUSG00000040720_ENSMUST00000059914|mouse|control|control (ssRNA)
RNA: GGGAGUUCUACAGUCCGACGAUCAAGCAACCUGGUGGUUUGGCUAGUAUACUGUUUUUCUUUAUCUUCUGAAGUGCUUUGCAAGUCUUCUACAAUCAAAUCCAACACAGUUCUCAUGAUCAGAAGAGCAGUUGGAGAGGCAAGCAACAGAGGAUUGAGCAUCA
B5: 7334659_7334779_828_CDS_ENSG00000170743_ENST00000318881|human|control|control (ssRNA)
RNA: GGGAGUUCUACAGUCCGACGAUCGUUACUCCGUCUCCCGUCAUCAUUAUCCAAUGACCUCUGCUUAUAUAACUCUGGUUUAAUUCUACCAAUUCCAGUCAACUGUUCCUGUUUUUGAAGCUGCUGGAUAUUGAAGUCCGGGUUCAACAGAGGAUUGAGCAUCA
B6: chr7:133967480:133967481:+_ENSMUSG00000058966_ENSMUST00000079423|mus_hu|FALSE|FALSE (ssRNA)
RNA: GGGAGUUCUACAGUCCGACGAUCGAAGGAGUUAGGGGUGGAGAAGGGACGCCAAGCCCGGGAAGGAGGGAGAAAACGAUGAGAAGGGGCACAAAGGGGCCAGGGCGGGGACGGGAUGGGGCCAGGGAGUCCGAUGAAACUGGGCAACAGAGGAUUGAGCAUCA
B7: 60831962_60832082_133_5pUTR_ENSMUSG00000072437_ENSMUST00000088237|mouse|control|control (ssRNA)
RNA: GGGAGUUCUACAGUCCGACGAUCCCGUGGGGUAGGGCAGCCUUGCUUCCUUUUAUCGCUCCCGCUUUCUCCUGUGCCCCUCCUCGCUGUCUCGGCCCUGCCCCCUGCGAUCCUCCGCCCGGGCCACUGCGCCCGCGCCCCCGGCAACAGAGGAUUGAGCAUCA
B8: 97379832_97382281_1272_3pUTR_ENSMUSG00000021669_ENSMUST00000077672|mouse|control|control (ssRNA)
RNA: GGGAGUUCUACAGUCCGACGAUCUUUCUUCUUAAGUUCUUCCAUCACAUUCUUGUACGCUUCCUCCACUCGUCUCCUCUUUUCCACUUCCCUAUCGUGUCUUUUUUGCCAGCUCUCUUCCCGUUUUACCAUUAAUUCAAUACACAACAGAGGAUUGAGCAUCA
B9: chr3:105770834:105770835:+_ENSMUSG00000000561_ENSMUST00000010278|mus_hu|FALSE|FALSE (ssRNA)
RNA: GGGAGUUCUACAGUCCGACGAUCACACUUCUCUCUCAUAUAUGUCCCAUCACUAGGGAGCCAGGGGGAAGGGAGUGGGCAUUACACAGGCAAGCCAAACUUUUUAUUCAGCCAGAAAAUGGAUUUCUGAUUCAGUUUAAUGGUCAACAGAGGAUUGAGCAUCA
B10: 62695852_62700603_289_3pUTR_ENSMUSG00000042211_ENSMUST00000048688|mouse|control|control (ssRNA)
RNA: GGGAGUUCUACAGUCCGACGAUCAGCUUCCGAGAGAGGCAUUCCAUGCACAUGAUGUCCUGUAGUGGCAGGUACCUGAAGAUAUGACAGAGCACUUCAUGUGACAGCUGGUUCAUGUAGUCCUUCUCUUCAUCGGCUGUCAUUCAACAGAGGAUUGAGCAUCA
B11: chr5:38529174:38529175:-_ENSMUSG00000029126_ENSMUST00000031009|mus_mus|motif|central (ssRNA)
RNA: GGGAGUUCUACAGUCCGACGAUCGAAAAGCUAAAGUAGCCCUGGCUUACCCAAAAUUACAUUUCACUUUGCCCACUGGCGGAUAAAACAAAACAAAACAAAACAAAAAACCCAAACUGCACCUGCAUUCAGGGCUGUACGUGCCAACAGAGGAUUGAGCAUCA
B12: chr16:45382771:45382772:-_ENSMUSG00000022661_ENSMUST00000163230|mus_mus|mus_mus_mus_hu_True|48_98 (ssRNA)
RNA: GGGAGUUCUACAGUCCGACGAUCCUGGGUCAUGUUAUGGGCCCAAUGGACAGGGAGGGCAUGCUUCUCAAAAAAUGUGAGCUAUUGACUAAGACUAACAAUAUUUAUCUAGCUAUAAAAAUAAGUUAAAUGAAUAAGUUAAGACAACAGAGGAUUGAGCAUCA
B13: chr2:9724813:9724814:-_ENSG00000134308_ENST00000238081|hu_hu|FALSE|FALSE (ssRNA)
RNA: GGGAGUUCUACAGUCCGACGAUCAUUUUUAUUGGGAGGGGAGGUUGGCAACUUAAACAGCAGCAAAUAAAGAGUGAAUAAGGAAACUCCCUGUUGCCACAGAUACACAAGACCUCCGUAUGUGAUACAGGAGCCAUUUCAAUUCAACAGAGGAUUGAGCAUCA
B14: chr10:94818082:94818083:+_ENSG00000138190_ENST00000260762|hu_hu|FALSE|FALSE (ssRNA)
RNA: GGGAGUUCUACAGUCCGACGAUCCUACAUGUGCUGGGACAUACCAUUCACCAAACUUCUCAGCUGUUUCACGACUGUCUCUAUCAACUUCUGUUUGUCUCGAUCAUUCUUCCUGAACUGAGCAAAUAUAUUGUUCUUUUUGCUCAACAGAGGAUUGAGCAUCA
B15: chr1:66480114:66480115:+_ENSMUSG00000015222_ENSMUST00000024639|mus_hu|mus_mus_mus_hu_True|98_98 (ssRNA)
RNA: GGGAGUUCUACAGUCCGACGAUCUGGCCUGUGGCGGAUGUUCUUUAGAGAGCCACAUUUGGAUGUCACAUGGCUUAGGUCUAUUUUCUUGGUAACAAUUUGUACCUGCCCCCCUUUAGGCUGGUAUUUGAUGUUGUCUGUUGACAACAGAGGAUUGAGCAUCA
B16: 117875474_117878920_396_CDS_ENSG00000164754_ENST00000297338|human|control|control (ssRNA)
RNA: GGGAGUUCUACAGUCCGACGAUCUGAUGUCCGUAAUGCCAUUUUCACCUUUGGUGAGAUGAUACUCUCCACGCUGCUCUCUAAAUUACACUCGAACACAUGGGCUUUGGUUAGCUUCUUAUCCCAAUGGGCCGCUAGCCAAAUCAACAGAGGAUUGAGCAUCA
B17: chr2:207631934:207631935:+_ENSG00000118246_ENST00000403094|hu_hu|motif|central (ssRNA)
RNA: GGGAGUUCUACAGUCCGACGAUCCUUCUGGUCAUCAGACAGUCUUUUGGCAAUUGUCCACAUUGCUGUGAAAUAGUUGCGGCGGGGAAAUGUGGGCGCUUUUGAAAAUGCAUCUAACACAUCACUCAGGGAAUUACAUUCCUCCAACAGAGGAUUGAGCAUCA
B18: chr15:64983782:64983783:-_ENSG00000180304_ENST00000326005|perfect_dup|motif|central (ssRNA)
RNA: GGGAGUUCUACAGUCCGACGAUCCCUGGAACAAUGUGCCUGCAGCACUGGAGCUGGGGACACUUACUCAACGGCAAAAUACGGCUGUCCUGGGUGUUUAUCAUCCUCGGUGGCUCUGCUCAGGGUGGGAGGAGGCGGCGCGGGCAACAGAGGAUUGAGCAUCA
B19: chr7:56126341:56126342:+_ENSG00000146731_ENST00000540286|hu_mus|hu_hu_hu_mus_True|68_68 (ssRNA)
RNA: GGGAGUUCUACAGUCCGACGAUCCAUGUUUCUCCUCUUGGCUCUGCGCAGAGCUACGAUCCCUUCUUUUGAAAGAGCAUCUAAGGAAAAGGGGUCAAUCCCCUUUUGAUUAAUAACGACAAAUCCUUUAUCUGAGUCACCACACAACAGAGGAUUGAGCAUCA
B20: chr8:79514634:79514635:+_ENSG00000171033_ENST00000352966|hu_hu|FALSE|FALSE (ssRNA)
RNA: GGGAGUUCUACAGUCCGACGAUCACUGUGUUUUAAAAAAGGGUGUUCUAUCCUGUGUACACCACCACAGUAUGGAAAACUAAAAUGAAAAGACAGCCCUUUUAAAAAUGAGUGGUAUAAAAAUUCACAGUAAUGUACAUCAUUCAACAGAGGAUUGAGCAUCA
B21: chr2:217001844:217001845:+_ENSG00000079246_ENST00000392132|hu_hu|hu_hu_hu_mus_False|28_28 (ssRNA)
RNA: GGGAGUUCUACAGUCCGACGAUCACCAACUUGAGGAUUAGAUCUUUUGUCAUAAGCAUAUCGGACGAUGGCGACCAUGUUUAACUCAUCCAAAGCAUGAACGAGAGAGGAAAGUGCAACAGCUGCCGCCUCAUCAUCCUUUGCCAACAGAGGAUUGAGCAUCA
B22: chr9:14812383:14812384:-_ENSMUSG00000031934_ENSMUST00000164273|mus_mus|mus_mus_mus_hu_True|48_88 (ssRNA)
RNA: GGGAGUUCUACAGUCCGACGAUCAUAGCCCAGGUAGAUACACGCUAACAGUAUAACGAUGAGUGUCAGCAGGCGGCAGCUAAUGUAUUUCAUGAUUAAAUUAUUAGAAUUUUUCUUUGUCUUCAAGUACUGCUCCACAAUUGGCAACAGAGGAUUGAGCAUCA

This is one part of the list.

In the experiment the target is T1, UNK ZnF1-3. The experiment can be described thus: nsRBNS (natural sequence RNA bind-n-seq); RBNS binding buffer (assumed for nsRBNS): 25 mM Tris pH 7.5, 150 mM KCl, 3 mM MgCl2, 0.01% Triton X-100, 500 ug/ml BSA, 20 U/ml SUPERase-In, 4 C; UNK is unkempt and MSI1 is Musashi-1; names of the RNAs are library labels; protein concentration not given here; high values mean tight binding.
For the molecule B1, the binding signal turned out to be 1.05 enrichment R.
The molecule B2 gave a binding signal of 2.09 enrichment R.
The molecule B3 gave a binding signal of 1.16 enrichment R.
The result for B4 reads 1.43 enrichment R; that for B5, 0.621 enrichment R.
The result for B6 reads 2.53 enrichment R; that for B7, 1.2 enrichment R.
With B8, the binding signal was found to be 0.401 enrichment R.
The result for B9 reads 0.994 enrichment R; that for B10, 1.2 enrichment R; that for B11, 1.25 enrichment R.
Take B12: the binding signal was determined as 2 enrichment R.
On to B13, for which the binding signal was 1.43 enrichment R.
The result for B14 reads 0.449 enrichment R; that for B15, 0.466 enrichment R.
On to B16, for which the binding signal worked out at 0.522 enrichment R.
With B17, the binding signal was 1.05 enrichment R.
The result for B18 reads 1.02 enrichment R; that for B19, 1.72 enrichment R.
Molecule B20 came in with a binding signal of 0.965 enrichment R.
The result for B21 reads 1.89 enrichment R; that for B22, 2.99 enrichment R.

The values are drawn from publication PMC12136788.
